# Reference: article PMC12040169 (PLOS Biology, 2025)
# This is one part of the list.
# System: T1, C. trachomatis L2/434/Bu expressing GFP (CTL2-GFP)
# T1 construct: L2/434/Bu GFP intracellular growth in HeLa cells
# Set-up: species or system HeLa; C. trachomatis total inclusion area by high-content imaging, normalised to DMSO
# Conditions: total inclusion area; 28.5 h, 10 µM; inhibitor
# How it was run: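 Post-fluorescence-read fixation, DNA staining with Hoechst and high-content imaging; GFP inclusion area and number per well, and nuclei counts, used as proxies for bacterial growth and host viability.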
row,Compound,% of control remaining
1,CCOC(=O)c1c(CN(C)C)n(-c2ccccc2)c2cc(Br)c(OC)cc12 [CBK115360],65.157
2,O=C/C(=C\Nc1ccc(S(=O)(=O)N2CCCCC2)cc1)c1nc2ccccc2o1 [CBK262281],97.1734
3,Cn1ccc(C2CCCCCN2C(=O)c2cc(C3CC3)on2)n1 (stereo not shown) [CBK283050],97.3108
4,O=C(CCCc1c[nH]c2ccccc12)Nc1cccc(C(=O)O)c1 [CBK287175],89.8057
5,Cc1nn(CCC#N)c(C)c1[C@@H]1C=C[C@@H](NC(=O)Nc2ccccc2)C1 [CBK289173],112.362
6,Cc1nc(Nc2c(Cl)cc(S(N)(=O)=O)cc2Cl)sc1C(=O)Nc1ccccc1 [CBK265335],79.3256
7,CC(C)Cn1c(=O)[nH]c2ncc(-c3cccc4ccccc34)nc21 [CBK064194],152.188
8,CCN(C(=O)c1cnccn1)C(CC1CCCCC1)c1ccccc1 (stereo not shown) [CBK061638],18.9625
9,CC1CCc2n[nH]c(C(=O)NC3CN4CCC3CC4)c2C1 (stereo not shown) [CBK283193],84.5091
10,CCOC(=O)COc1ccc(/C=C2/SC(=S)N(c3cccc(C(=O)O)c3)C2=O)cc1 [CBK265632],108.426
11,COCCCn1c(=O)[nH]c2ncc(-c3cccc(OC)c3)nc21 [CBK064519],75.2552
12,Cc1noc(C)c1C(=O)N(C)CC(=O)Nc1ccc(Cl)c(C(F)(F)F)c1 [CBK295363],113.389
13,N#Cc1sc(N)c2ccc(-c3ccncc3)nc12 [CBK019761],99.8248
14,COC(=O)c1ccsc1NC(=O)c1cc(-c2ccc(C)o2)nc2ccc(Br)cc12 [CBK267752],113.819
15,CN1CCC(N(C)C(=O)c2ccc3nccnc3c2)CC1 [CBK269096],100.232
16,O=C(Nc1ccc2oc(-c3cccnc3)nc2c1)c1cc([N+](=O)[O-])ccc1N1CCOCC1 [CBK268674],128.684
17,Cc1ccc(/C=C/C(=O)O)cc1S(=O)(=O)NCC1CCCO1 (stereo not shown) [CBK287267],104.332
18,COc1ccc(Cl)cc1NC(=O)CN(C1CCCCC1)S(=O)(=O)c1ccccc1 [CBK265159],80.8728
19,COc1ccc(C(C)C)cc1-c1cnc(N)c(NC2CCCCC2)n1 [CBK063618],97.3548
20,CN(C(=O)CN1CCN(c2cc(-c3ccsc3)ncn2)CC1)c1ccccc1 [CBK091129],149.177
21,CN(C)CCN1C(=O)C(O)=C(C(=O)c2ccc(S(=O)(=O)N3CCOCC3)cc2)C1c1ccccc1 (stereo not shown) [CBK264668],107.879
22,C=CCn1c(SCC(=O)N2CCN(c3ccccc3)CC2)nnc1-c1ccc(N)cc1 [CBK267956],102.619
23,CN1CCN(c2snnc2CO)CC1 [CBK025626],92.0507
24,CCC(C)(C)c1ccc(S(=O)(=O)N2CCN(Cc3cccc4cccnc34)CC2)cc1 [CBK062830],70.3935
25,CC(C)CCNCc1ccc(-c2cn(CC(=O)NCc3ccc(C(F)(F)F)cc3)cn2)cc1 [CBK165976],35.9951
26,Fc1cc(Cl)ccc1NC(=S)NCCN1CCOCC1 [CBK268441],106.207
27,COc1cc(C=C2C(=O)OC(C)(C(C)(C)C)OC2=O)cc(Br)c1OC (stereo not shown) [CBK028893],83.4661

row,Compound,% of control remaining
1,COC(=O)CNC(=O)c1cc(-c2ccc(C)s2)nc2c1cnn2C(C)C [CBK305040],66.716
2,CCn1c(=O)n(CC(=O)N2C(C)CCCC2C)c2cccnc21 (stereo not shown) [CBK283825],111.188
3,CC(C)Nc1cncc(OCc2ccc(Cl)c(Cl)c2)n1 [CBK115653],93.3415
4,O=C(N/N=C/c1cc(Br)c(Br)o1)c1cccc(F)c1 [CBK261688],42.0608
5,c1coc(CNc2cncc(-c3cccc4ccccc34)n2)c1 [CBK065573],78.9159
6,O=C(N[C@@H]1CNCCC[C@H]1O)c1ccc(OCCN2CCCC2)cc1 [CBK289070],130.253
7,COc1ccc([C@]23CN(C)C[C@H]2CCN(C(=O)Nc2ccc(Cl)c(F)c2)C3)cc1OC [CBK081140T],62.8295
8,Cc1cccc(-c2csc3c(=O)[nH]c(N4CCC(C(=O)NCCc5cccnc5)CC4)nc23)c1 [CBK215627],110.317
9,C[C@@H](Nc1nc(-c2ccco2)cnc1N)c1ccccc1 [CBK063737],152.348
10,CC(=O)c1ccc(NC(=O)NC[C@H]2C[C@@H]3CC[N@]2C[C@@H]3CN2CCCCC2)cc1 [CBK288766],83.7425
11,COc1ccc(OCc2ncc(C(C)(C)C)o2)c(C(C)=O)c1 [CBK305079],67.8884
12,CCN(CC)CCn1c(=N)n(CC(=O)c2cccs2)c2ccccc21 [CBK278240B],95.1115
13,CC(NS(=O)(=O)c1cccs1)c1ccccc1 (stereo not shown) [CBK043601],96.5719
14,CC(=O)c1sc(NC(=O)c2ccc(N3C(=O)CCC3=O)cc2)nc1C [CBK287334],113.064
15,O=C(NCc1cccs1)c1ccc2nc[nH]c2c1 [CBK153320],114.511
16,Cc1[nH]c2ccccc2c1Cc1n[nH]c(=S)n1Cc1ccccc1 [CBK266985],67.6948
17,CC(=O)c1ccc(-c2cc(F)cc3c2OC(CN)C3)s1 (stereo not shown) [CBK307513],31.2704
18,CC(=O)N1CCC2(CCCC[C@H]3CN(C(C)C)CC[C@@H]3NC(=O)CNC2=O)CC1 [CBK292133],98.1515
19,CCOC(=O)CN1C(=O)S/C(=C/c2cc(C)n(-c3cc(C)ccn3)c2C)C1=O [CBK264731],106.879
20,c1nc(OC2CCOC2)cc(N2CCCC2)n1 (stereo not shown) [CBK115899],80.2907
21,CCN1C(=O)CC(C(=O)O)S/C1=N\c1ccc(OC)cc1 (stereo not shown) [CBK287266],87.0781
22,CCC(CN1CCOCC1)NC(=O)Cc1coc2cc(C)c(C)cc12 (stereo not shown) [CBK282811],83.2744
23,Cc1c(C(=O)N2CCC[C@@H]2CO)nnn1Cc1ccc(F)cc1F [CBK304071],48.282
24,Cc1ccc(-c2cc(CC3(C(=O)N(C)C)CCCN(C)C3)on2)cc1 (stereo not shown) [CBK281695],90.9781
25,NS(=O)(=O)c1cc(C(=O)OCCNC(=O)c2ccccc2)c(Cl)cc1Cl [CBK265193],103.207
26,O=C(O)CCc1ccc(-c2ccccc2)n1CC1CCCO1 (stereo not shown) [CBK267955],94.0533
27,CN(CC(=O)O)S(=O)(=O)c1ccc(F)c2ccccc12 [CBK268447],109.781

row,Compound,% of control remaining
1,COc1cc(CN2CCN(C/C=C/c3ccccc3)CC2)cc(I)c1O [CBK261882],91.489
2,N#Cc1c(O)nc(SCC(=O)Nc2ccc(Oc3ccccc3)cc2)nc1-c1ccccc1 [CBK266607],105.759
3,OCCN(CCO)c1cncc(-c2ccc(F)c(Cl)c2)n1 [CBK066015],162.602
4,CC(C)(C)OC(=O)NCCNCc1ccccc1Br [CBK056693],123.685
5,Cc1cnc2[nH]c(C(C)C)c(CN(C)C)c2c1 [CBK284758],104.027
6,CCOC(=O)NC(=O)CSc1nnc(C2COc3ccccc3O2)n1-c1ccccc1 (stereo not shown) [CBK297884],126.436
7,Cc1cnc(CNC(=O)/C=C/c2ccc(C(C)C)cc2)cn1 [CBK149625],82.8853
8,O=[N+]([O-])c1cccc(S(=O)(=O)NCc2ccccn2)c1 [CBK263669],95.8782
9,CC(C)(C)C(=O)NC(NC(=S)Nc1sc2c(c1C(N)=O)CCCC2)C(Cl)(Cl)Cl (stereo not shown) [CBK261052],89.8524
10,CC(C)(C)OC(=O)Nc1cc(Cl)ccc1C(=O)O [CBK200024],131.742
11,COCc1ccccc1Cn1cnc2ccccc21 [CBK267496],69.9434
12,CC(C)NC(=O)NC[C@H]1C[C@@H]2CC[N@]1C[C@@H]2CN1CCN(c2ncccn2)CC1 [CBK289116],76.9693
13,CC(C)NC(=O)CCNc1ncc(C(N)=O)cc1Cl [CBK306373],52.5933
14,O=C(O)CCCCCNc1ncnc2sc3c(c12)CCCC3 [CBK077446],79.2633
15,CCn1c2ccccc2c2cc(Nc3cc(-c4ccc(OC(F)(F)F)cc4)ncn3)ccc21 [CBK090842],107.228
16,COc1ccc(C2CC(c3ccccc3O)=NN2)cc1 (stereo not shown) [CBK287281],95.8576
17,Nc1ncc(-c2cc3ccccc3s2)nc1-c1ccc(CCC(=O)O)cc1 [CBK064134],129.044
18,Cc1ccc(S(=O)(=O)Nc2c(C(=O)N3CCOCC3)[nH]c3ccccc23)cc1 [CBK050066],104.396
19,COc1ccccc1C1OC(=O)C[C@@H]1C(=O)Nc1cc(C(C)(C)C)on1 (stereo partly shown) [CBK021439],32.7771
20,c1cnc(N2CCN(CCN3CCOCC3)CC2)c(OCCN2CCOCC2)n1 [CBK082899],99.4935
21,COc1ccc(Br)cc1S(=O)(=O)NCc1cccnc1 [CBK264023],98.6422
22,CCNC(=O)Nc1ncc(-c2ccc(Oc3ccccc3)cc2)c2cccnc12 [CBK070636],109.322
23,CN(C)/C=N/c1nc2c(ccn2C2CC(O)C(CO)O2)c(=O)[nH]1 (stereo not shown) [CBK201276],118.517
24,CN1CCN(c2ccccc2NC(=O)c2cccc3c(Br)cccc23)CC1 [CBK267894],78.6419
25,CC1CCN(S(=O)(=O)c2ccc(C(=O)N[C@@H](C)C(=O)O)cc2)CC1 [CBK297106],98.7489
